# In the supplement of paper PMC12645437, “Orthogonal IMiD-Degron Pairs Induce Selective Protein Degradation in Cells” (ACS Chemical Biology, 2025):
# Some of the results follow.
# Target: no compound (DMSO)
# Test: log2 fold change of degron read counts, EGFP-low vs EGFP+ sorted cells; higher = lower degron-EGFP level without compound (poor expression or instability)
# Details: compound: DMSO control; 18 h
# 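Note: jurkat cells carrying a lentiviral library of mutant zinc finger degrons fused to EGFP plus mCherry, mCherry+ cells FACS sorted, degron abundance counted by next-generation sequencing.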
row,Sequence,log2 fold change of degron read counts
1,FNCNICGADFTQKGNLLRHIKL,-1.53
2,FICDVCGAQFTQKGNLLRHIKL,-1.14
3,FQCNQCGHPFTQKGNLLRHIKL,-0.157
4,LRCEICGFSCTQKGNLLRHIKL,-0.352
5,LMCNQCGFTCTQKGNLLRHIKL,0.365
6,FVCEQCGARFTQKGNLLRHIKL,-2.25
7,FQCPICGHRFTQKGNLLRHIKL,-0.179
8,FHCNQCGHLFTQKGNLLRHIKL,0.298
9,FKCNICGAMFTQKGNLLRHIKL,-0.858
10,FRCPICGAHFTQKGNLLRHIKL,0.0476
11,FICEICGRFFTQKGNLLRHIKL,-0.294
12,FECPICGHYFTQKGNLLRHIKL,-0.786
13,FFCPVCGAGFTQKGNLLRHIKL,0.484
14,FLCDVCGAWFTQKGNLLRHIKL,-0.522
15,LQCEICGFFCTQKGNLLRHIKL,0.577
16,LCCNQCGFLCTQKGNLLRHIKL,1.36

row,Sequence,log2 fold change of degron read counts
1,FWCNQCGHMFTQKGNLLRHIKL,1.36
2,FGCEICGRQFTQKGNLLRHIKL,-1.31
3,FDCEICGAVFTQKGNLLRHIKL,-1.17
4,FICPICGRFFTQKGNLLRHIKL,0.63
5,FQCDQCGARFTQKGNLLRHIKL,-1.89
6,FGCDICGAYFTQKGNLLRHIKL,-0.67
7,FTCEICGHFFTQKGNLLRHIKL,-0.887
8,FDCPICGARFTQKGNLLRHIKL,-0.889
9,FECPVCGASFTQKGNLLRHIKL,-0.688
10,FACNQCGRKFTQKGNLLRHIKL,-0.046
11,FSCEVCGALFTQKGNLLRHIKL,-1.06
12,LACPICGFRCTQKGNLLRHIKL,0.593
13,FMCNQCGRCFTQKGNLLRHIKL,-0.367
14,FNCNQCGHSFTQKGNLLRHIKL,-0.337
15,LACEICGFFCTQKGNLLRHIKL,1.39
16,FRCNQCGHWFTQKGNLLRHIKL,0.978
